Source: article PMC6451091
The list shows a part of the results. For part of these data: At the low end of the ranking, values are background and their order means little. For part of these data: The protein was read in a cell extract, so binding may be indirect.

Assays:
Conditions in all cases: 20 mM HEPES pH 7.9, 100 mM NaCl, 1 mM DTT, 0.2 mg/mL BSA, 0.02% Triton X-100, 2% milk, 0.4 mg/mL salmon testes DNA; 1 h; temperature not stated; high values mean tight binding; double strand, one strand shown; sequences stand for … in GCCTAGCAC…GTGCTAGGTCTTGATTCGCTTGACGCTGCTG
PU.1 (IVT) = PU.1 (IVT) (UniProt P17947); test: protein-binding microarray (PBM)
[1] = target: PU.1 (endogenous, THP-1 nuclear extract) (UniProt P17947); test: nuclear extract protein-binding microarray (nextPBM)
[2] = target: T1, FLI1 (endogenous, THP-1 nuclear extract) (UniProt Q01543); test: as above
T1 sequence: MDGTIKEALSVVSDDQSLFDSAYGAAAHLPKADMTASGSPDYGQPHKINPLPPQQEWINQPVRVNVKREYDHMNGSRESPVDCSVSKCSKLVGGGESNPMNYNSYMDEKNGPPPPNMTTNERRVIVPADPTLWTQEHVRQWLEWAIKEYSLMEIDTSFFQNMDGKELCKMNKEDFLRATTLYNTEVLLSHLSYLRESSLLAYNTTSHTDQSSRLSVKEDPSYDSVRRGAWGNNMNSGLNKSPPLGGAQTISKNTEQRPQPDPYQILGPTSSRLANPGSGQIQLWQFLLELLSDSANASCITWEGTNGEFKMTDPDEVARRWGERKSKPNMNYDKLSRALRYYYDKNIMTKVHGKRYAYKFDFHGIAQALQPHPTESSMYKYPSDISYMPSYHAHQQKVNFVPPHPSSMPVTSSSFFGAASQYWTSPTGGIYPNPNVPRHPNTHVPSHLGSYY

Sequence	binding signal (PU.1 (IVT))	binding signal [1]	binding signal [2]
TTAAAGGGGAAGTGTTTGTT	6.14 z-score	6.44 z-score	3.01 z-score
TGAAAGAGGAATTGCAACCA	2.04 z-score	2.06 z-score	0.961 z-score
AGAAGGAGGAAGTGAAGGCA	4.97 z-score	6 z-score	3.12 z-score
CGAAAAGGGAAATACTGTGA	2.65 z-score	2.26 z-score	1.55 z-score
TAAAACAGGAAGTGTACTCT	7.45 z-score	7.02 z-score	5.55 z-score
AAAATGGGGAAGTCGTTGGA	7.56 z-score	7.23 z-score	3.09 z-score
CGAAGGGGGAAGTGCTAAAC	5.21 z-score	4.82 z-score	2.32 z-score
AAAAAAAGAAACTGGCTAGA	-0.279 z-score	-0.245 z-score	0.232 z-score
AAAAACAGGAAGTCCTATTC	7.91 z-score	7.17 z-score	5.02 z-score
AAAAACAGGAAGTCCCATAG	7.88 z-score	7.1 z-score	4.69 z-score
CAATTAAGGAAGTGCTTGAG	5.32 z-score	5.82 z-score	2.58 z-score
AGAAAAGGGAAGTGTTAAAT	6.48 z-score	6.41 z-score	2.54 z-score
TGTATAAGGAAGTGGGAGCC	3.93 z-score	3.99 z-score	2.12 z-score
AAAATGAGGAAGTGGCTTTG	8.37 z-score	7.46 z-score	3.85 z-score
AAAAGAAGGAAGTGATAGCA	5.41 z-score	5.65 z-score	2.35 z-score
AAAAAAAGGAATTGGCTAGA	1.77 z-score	1.22 z-score	0.432 z-score
CTTTAGAGGAACTCCCTGCC	1.94 z-score	2.61 z-score	0.6 z-score
TCAACAAGGAAGTGATCCCT	2.95 z-score	3.36 z-score	1.92 z-score
GAGAAGGGGAAGTGTTCTCA	5.57 z-score	5.72 z-score	2.37 z-score
GGTTTGAGGAAGTGAATGGG	6.28 z-score	6.38 z-score	3.12 z-score
CTGAAGGGGAAGTGGTACTT	4.45 z-score	5.32 z-score	2.38 z-score
GCAAAGGGGAAGTGCCACAC	6.07 z-score	6.44 z-score	2.55 z-score
CAAAAAGGGAAGTGTATGCT	6.78 z-score	6.77 z-score	2.71 z-score
AGAAACAGGAAGTGGGTAAA	7.14 z-score	7.08 z-score	5.45 z-score
TTACTGAGGAACTGCCAGAC	1.62 z-score	1.46 z-score	0.464 z-score
